Experimental data from article PMC6919601, “Identification of Plasmodium dipeptidyl aminopeptidase allosteric inhibitors by high throughput screening” (PLoS ONE, 2019).
Hit rate of the full screen: of about 110,000 compounds, about 230 (0.21%) showed an effect of 50% or more. The list shows a part of the results.

Each compound was assayed against DPAP1 (Plasmodium falciparum, UniProt Q8IIJ9) (assay: primary screen, percent inhibition; read by cleavage of a fluorogenic dipeptide substrate; higher = more effect of the substance).
Set-up: species or system P. falciparum D10 trophozoite lysates; single well
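Note: 30 min substrate incubation versus DMSO and 10 µM JCP410 controls.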

Chain of DPAP1 (Q8IIJ9 whole entry, looked up): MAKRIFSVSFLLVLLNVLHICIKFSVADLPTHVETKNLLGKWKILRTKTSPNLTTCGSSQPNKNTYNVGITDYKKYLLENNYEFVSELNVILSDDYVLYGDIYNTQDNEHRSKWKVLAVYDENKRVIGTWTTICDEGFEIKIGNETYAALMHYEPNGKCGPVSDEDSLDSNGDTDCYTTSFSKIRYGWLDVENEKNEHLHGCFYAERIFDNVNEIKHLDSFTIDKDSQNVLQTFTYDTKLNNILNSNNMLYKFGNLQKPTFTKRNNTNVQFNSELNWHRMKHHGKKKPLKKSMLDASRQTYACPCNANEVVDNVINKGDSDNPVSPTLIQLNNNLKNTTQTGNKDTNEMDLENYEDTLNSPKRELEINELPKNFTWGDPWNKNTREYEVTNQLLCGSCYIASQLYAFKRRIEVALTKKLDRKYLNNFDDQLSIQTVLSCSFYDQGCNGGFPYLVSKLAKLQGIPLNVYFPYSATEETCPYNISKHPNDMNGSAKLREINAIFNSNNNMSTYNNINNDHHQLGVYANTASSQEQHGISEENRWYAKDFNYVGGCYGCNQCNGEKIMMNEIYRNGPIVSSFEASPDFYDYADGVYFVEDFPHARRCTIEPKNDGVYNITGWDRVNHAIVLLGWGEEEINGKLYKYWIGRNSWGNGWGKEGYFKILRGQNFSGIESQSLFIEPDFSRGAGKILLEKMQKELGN

Compound | % Inhibition @ 10 uM [%]
CCC(CC)C(=O)Nc1ccc(N(CC)CC)cc1 | 0.361
CC(C)(C)C(=O)NCCCc1nc2ccccc2n1Cc1ccccc1F | 4.77
O=C(Nc1cc(C(F)(F)F)ccc1Cl)C1CC(=O)N(c2ccc(Br)cc2)C1 (stereo not shown) | -12.1
O=C(CN(Cc1ccccc1)S(=O)(=O)c1ccc2c(c1)OCCO2)Nc1ccc2c(c1)OCCO2 | -4.39
CCOc1cc(CNCc2c(C(=O)O)[nH]c3cc(OC)ccc23)ccc1OC | 3.38
COc1ccc(Cc2nn3c(Cc4ccccc4)nnc3s2)cc1 | 3.38
COCC(C)NC1Cc2ccccc2C1 (stereo not shown) | 4.75
CC(C)=C1C2C=CC1C1C(=O)N(c3cccc(C(=O)O)c3)C(=O)C21 (stereo not shown) | -2.56
CC(Cc1ccccc1F)N1CCC(N2CCCCC2)CC1 (stereo not shown) | -6.62
Cc1cccnc1NCc1ccc(O)c2ncccc12 | -15.4
CCC(C)(CC)C(O)(C#CCN1CCCCC1)c1ccccc1 (stereo not shown) | -5.78
COc1cc2c(cc1OC)CN(S(=O)(=O)c1cccc(F)c1)CC2 | -0.123
CCn1c(-c2cccc(Br)c2)nc2ccccc21 | -4.07
COc1ccc(-c2cc(-c3ccccc3)nc3sc(C(=O)NCC4CCCO4)c(N)c23)cc1 (stereo not shown) | 19
CC(=O)Nc1ccc(NC(=O)CNS(=O)(=O)c2c(C)cc(C)cc2C)cc1 | 3.89
Cc1cnc(NC(=O)c2sc3cc(Cl)ccc3c2Cl)s1 | -0.413
C=CCC(C)(C)NC(C)c1ccccc1 (stereo not shown) | 0.385
COc1ccc2sc(N(CCN(C)C)C(C)=O)nc2c1 | -4.44
COc1cc(/C=C/C(=O)c2ccc(-c3ccccc3)cc2)c([N+](=O)[O-])cc1OC | 0.937
CCC(NC(=O)[C@@H](C[C@H](C)c1ccccc1)NC(=O)c1ccc(-c2ccccc2Cl)cc1)C(=O)c1nc2ncccc2o1 (stereo partly shown) | -1.82
COc1cccc(C2=CC(c3ccccc3C)n3ncnc3N2)c1 (stereo not shown) | -1.62
CCN1CNC(=S)N(C(C)c2ccccc2)C1 (stereo not shown) | -5.62
O=S(=O)(c1ccc(Br)c2nsnc12)N1CCCCC1 | 2.58
O=C(CSc1ccc2nnc(CCNS(=O)(=O)c3ccccc3)n2n1)NCc1ccccc1 | 2.22
CCCc1nc2nc(C)c(N)c(O)n2n1 | -2.78

Compound | % Inhibition @ 10 uM [%]
CC(NC(=O)C(C)n1sc2ccccc2c1=O)c1ccc2c(c1)OCCO2 (stereo not shown) | 3.39
O=C(Cc1ccc(Cl)cc1)NCc1ccc2c(c1)OCO2 | -0.641
Cc1nn(CC(=O)NCC2CCCO2)c(=O)c2nn(-c3ccccc3)c(C)c12 (stereo not shown) | 5.3
COCc1cccc(NC(=O)Cn2cnc3c(=O)n(C)c(=O)n(C)c32)c1 | -8.43
CCC(C)c1ccccc1OCC(=O)Nc1cccc(C#N)c1 (stereo not shown) | -3.72
CCOC(=O)N1CCC(NC(=O)C(Cc2ccccc2)NC(=O)c2ccco2)CC1 (stereo not shown) | 5.65
COc1ccc(C2OC(c3ccc(S(=O)(=O)N4CCCCC4)cc3)=NN2C(C)=O)cc1 (stereo not shown) | -3.64
N#CC1=C(N)OC2=C(C(=O)CCC2)C1c1c(F)cccc1Cl (stereo not shown) | -2.53
CN1C(=O)C(=Cc2cccn2-c2ccc(Cl)cc2)C(=O)N(C)C1=O | -6.6
CC1(C)CC(NC(=O)CN2CCCCC2)CC(C)(C)N1 | 0.162
O=C(CSc1nccn1Cc1ccccc1)Nc1nccs1 | 1.57
CCCCOc1ccc(CN2CCSCC2)cc1 | -5.42
Cc1ccnc(NC(=O)c2cc3c(Cl)nc4ccccc4c3s2)c1 | 2.5
CC(=O)NC(C)Cc1cn(Cc2ccccc2)c2ccccc12 (stereo not shown) | -3.5
O=C(O)c1ccc(S(=O)(=O)Nc2cccnc2)cc1 | -9.16
Cc1ccc(OCC(=O)Nc2ccc(Br)c(C)n2)cc1C | 0.605
CC(Cc1cccc(C(F)(F)F)c1)NCC(C)(C)CN(C)C (stereo not shown) | 1.57
Cc1ccc(C(=O)NC2CCCCC2)cc1S(=O)(=O)N1CCOCC1 | -4.27
Cc1cccc(OCC(=O)Nc2cccc(Cl)c2)c1 | 12.7
Oc1cc2ccccc2cc1-c1nc2c3c4c(sc3ncn2n1)CCCC4 | 9.39
Cc1ccc(C(=O)O)cc1/N=C/c1c(C)nn(-c2ccc(Cl)cc2)c1O | 4.01
Cc1ccc(S(=O)(=O)NC(=O)Nc2ccc(C)cc2C)cc1 | -3.25
COc1ccc(Br)cc1CNCc1ccc2c(c1)OCO2 | -4.16
Cc1ccc(NC(=O)c2ccncc2)c(NC(=O)c2ccncc2)c1 | -3.47
Cc1ccc(C(=O)c2cn(CC(=O)NC3CCCC3)c3nc(C)ccc3c2=O)cc1 | -2.07

Compound | % Inhibition @ 10 uM [%]
COc1ccc(-c2cc(C(F)(F)F)nc(SCC(=O)N3CC(C)OC(C)C3)n2)cc1OC (stereo not shown) | 32.3
CC1CC(C)C(=O)N(c2ccccc2)C1=O (stereo not shown) | 0.389
O=[N+]([O-])c1ccc(SCCc2ccccn2)cc1 | 0.989
COc1ccc(/C(O)=C/C2=NCC3c4ccccc4CCN3C2=O)cc1 (stereo not shown) | -0.68
CCN1CCCC1CNC(=O)Cn1nc(C)n2c(cc3c(OC)cccc32)c1=O (stereo not shown) | -5.32
CC1CC(C)CN(C(=O)C2CCC(CNS(=O)(=O)c3ccc(Cl)cc3)CC2)C1 (stereo not shown) | 2.35
O=C(c1cc(-c2ccco2)on1)N1CCc2ccccc2C1 | -1.21
CCCN1C(=O)S/C(=C\c2c(NCC)nc3ccccn3c2=O)C1=O | -2.98
CCOc1ccc2nc(N3CCC(C(=O)NCC4CCCO4)CC3)sc2c1 (stereo not shown) | 3.4
COc1ccc(S(=O)(=O)N2CCN(c3ccc(C)cc3C)CC2)cc1 | -4.33
c1ccc(CC2CCN(Cc3nnc(-c4ccc5c(c4)OCO5)o3)CC2)cc1 | -0.0709
COc1ccc(CCN2/C(=N/C(C)=O)SC3CS(=O)(=O)CC32)cc1 (stereo not shown) | -1.15
COC(=O)c1c(C)n(Cc2ccccc2)c2ccc(O)cc12 | 2.95
N#Cc1ccccc1NC(=O)c1ccc(N2C(=O)c3ccccc3C2=O)cc1 | -1.93
C=CCn1c(-c2ccccc2)cs/c1=N\c1ccc(OC)cc1 | 8.06
CCCCN(CC)CCCNC(=O)NCc1noc2ccc(C)cc12 | 4.25
Cc1ccccc1C(=O)Nc1ccc(S(=O)(=O)N2CCCCC2)cc1 | 3.8
COc1ccc2c(CNCc3cccc(Cl)c3)c(C(=O)O)n(Cc3ccccc3C)c2c1 | 2
CCN1C(=O)/C(=C\c2ccc3c(c2)OCO3)C(C(=O)OC)=C1C | -1.32
C/C=C(\C)CN1CCN(c2cccc(Cl)c2)CC1 | 1.88
Fc1nc(F)c(F)c(-n2c(C(F)(F)F)nc3ccccc32)c1F | 4.66
COc1ccc(OC)c(N(CC(=O)Nc2ccccc2F)S(=O)(=O)c2ccccc2)c1 | 5.04
Cc1ccc(S(=O)(=O)NCC2CCC(C(=O)NC(C)c3ccc4c(c3)OCCO4)CC2)cc1 (stereo not shown) | 3.93
C=CCc1c(C)nc(-c2ccccc2)nc1Nc1ccc([N+](=O)[O-])cc1 | -0.712
Cc1ccc(-c2noc(-c3nnn(-c4ccccc4Cl)c3N)n2)cc1 | -3.58

Compound | % Inhibition @ 10 uM [%]
COC(=O)c1nc2n(n1)C(c1cc(OC)ccc1OC)C=C(c1cccc(Br)c1)N2 (stereo not shown) | 1.73
CCOC(=O)NCCc1cc(OC)c(OC)cc1C(C)=O | 4.11
COc1cccc(NC(=O)Nc2ccc(Cl)c(Cl)c2)c1 | 0.316
O=C(CN1C(=O)S/C(=C/c2cccc(F)c2)C1=O)Nc1ccccc1 | -9.11
CCc1nn(C(C)C(=O)NC(C)CCc2ccccc2)c(=O)c2cc3occc3n12 (stereo not shown) | -3.79
CCOC(=O)c1sc(NC(=O)C(C)Oc2ccccc2Br)c(C(=O)OCC)c1C (stereo not shown) | 0.611
Oc1ccc2[nH]cc(CCNC(c3ccccc3)(c3ccccc3)c3ccccc3)c2c1 | 6.24
CS(=O)(=O)C1=NN2C(=N)/C(=C\c3ccc(SCc4ccccc4)o3)C(=O)N=C2S1 | 6.04
O=C(CN(c1cccc(Br)c1)S(=O)(=O)c1ccccc1)N1CCCCCC1 | 0.956
COCCN1C(=O)c2ccccc2C(C(=O)N2CCCC2)C1c1ccc(F)cc1 (stereo not shown) | 0.457
CCO/C(O)=C1\C(C)=NC2=C(C(=O)CCC2)C1c1ccc(Cl)c(Cl)c1 (stereo not shown) | -1.56
COc1cc(Br)cc2cc(C(=O)NCc3ccncc3)c(=O)oc12 | -0.0108
O=C(CSc1ccccn1)Nc1nc(-c2ccccc2)cs1 | 2.24
C=CCSc1ncc(Cl)c(C(=O)Nc2nc3ccc(F)cc3s2)n1 | -0.946
COc1ccc2c(CNC3CCCC3)c(C(=O)O)n(Cc3ccc(F)cc3Cl)c2c1 | 2.54
N#Cc1c(Cl)nc(N2CCN(C(=O)c3ccccc3)CC2)c(Cl)c1Cl | 1.34
N#Cc1c(-c2ccc(Cl)cc2)cc(C2CC2)nc1SCC(N)=O | 7.15
O=C(Nc1ccc(C(=O)N2CCOCC2)cc1)c1cccc(Cl)c1 | 1.52
CS(=O)(=O)CC1CC1(Cl)Cl (stereo not shown) | 1.63
Cc1ccccc1S(=O)(=O)Cc1ccc(C(=O)NC2CCCc3ccccc32)o1 (stereo not shown) | 3.47
COc1ccc(C2C(C#N)=C(N)OC3=C2C(=O)CCC3)cc1CSc1ccccn1 (stereo not shown) | -4.4
Cc1ccc(-n2nc(C)c(/C=N/c3ccc(S(N)(=O)=O)cc3)c2O)c(C)c1 | -3.26
COc1ccc(/C=C(\NC(=O)c2ccccc2)C(=O)NCc2ccco2)cc1 | -0.615
CCN1CCCC1CNC(=O)c1sc2nc(C)cc(C)c2c1-n1cccc1 (stereo not shown) | 3.87
CC(C)N(Cc1nc(-c2ccc(Cl)cc2)no1)C(=O)C12CC3CC(CC(C3)C1)C2 | 4.95
